This is one part of the list. Antibody binding of pooled human sera (four to six donors per pool; dilution not stated) to peptides of the Trypanosoma cruzi antigen TSSA on microarrays. Quantile-normalised fluorescence in arbitrary units, mean of duplicate arrays; higher = more binding. No active / inactive call. The uninfected pools are read here as the healthy donors of the same country. The strongest signals lie near the top of the scale (about 60,000).
Tests used:
Assay in all cases: antibody binding signal (normalised fluorescence) (arbitrary fluorescence units); higher = stronger serum antibody binding to peptide
[1] = test system: pooled sera of chronic Chagas disease patients, Argentina
Procedure: (§1)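 Microarray of 15-residue peptides over residues 30-55 of Trypanosoma cruzi TSSAII, each with 1 to 10 substitutions at naturally variable positions, probed with one serum pool per country.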

[2] = test system: pooled sera of chronic Chagas disease patients, Bolivia
Procedure: as §1

[3] = test system: pooled sera of chronic Chagas disease patients, Brazil
Procedure: as §1

[4] = test system: pooled sera of chronic Chagas disease patients, Colombia
Procedure: as §1

[5] = test system: pooled sera of chronic Chagas disease patients, Mexico
Procedure: as §1

[6] = test system: pooled sera of chronic Chagas disease patients, USA
Procedure: as §1

[7] = test system: pooled sera of uninfected people, Argentina
Procedure: as §1

[8] = test system: pooled sera of uninfected people, Bolivia
Procedure: as §1

[9] = test system: pooled sera of uninfected people, Brazil
Procedure: as §1

[10] = test system: pooled sera of uninfected people, Mexico
Procedure: as §1

[11] = test system: pooled sera of uninfected people, USA
Procedure: as §1

SSTPPSGTEKKTATG
antibody binding signal [1]: 32800
antibody binding signal [2]: 4600
antibody binding signal [3]: 30300
antibody binding signal [4]: 405
antibody binding signal [5]: 16800
antibody binding signal [6]: 3670
antibody binding signal [7]: 860
antibody binding signal [8]: 335
antibody binding signal [9]: 141
antibody binding signal [10]: 221
antibody binding signal [11]: 175

SSTPPSGKEKKPAAG
antibody binding signal [1]: 21200
antibody binding signal [2]: 1220
antibody binding signal [3]: 4280
antibody binding signal [4]: 481
antibody binding signal [5]: 27000
antibody binding signal [6]: 472
antibody binding signal [7]: 676
antibody binding signal [8]: 674
antibody binding signal [9]: 147
antibody binding signal [10]: 152
antibody binding signal [11]: 306

KTATGETPSPSGASS
antibody binding signal [1]: 328
antibody binding signal [2]: 399
antibody binding signal [3]: 1100
antibody binding signal [4]: 189
antibody binding signal [5]: 2670
antibody binding signal [6]: 5240
antibody binding signal [7]: 221
antibody binding signal [8]: 223
antibody binding signal [9]: 183
antibody binding signal [10]: 132
antibody binding signal [11]: 544

DNKTAAGETPSQSGA
antibody binding signal [1]: 290
antibody binding signal [2]: 496
antibody binding signal [3]: 2330
antibody binding signal [4]: 395
antibody binding signal [5]: 267
antibody binding signal [6]: 261
antibody binding signal [7]: 155
antibody binding signal [8]: 237
antibody binding signal [9]: 225
antibody binding signal [10]: 212
antibody binding signal [11]: 148

KDNKTAAGEAPSPPG
antibody binding signal [1]: 986
antibody binding signal [2]: 221
antibody binding signal [3]: 1680
antibody binding signal [4]: 1890
antibody binding signal [5]: 317
antibody binding signal [6]: 5550
antibody binding signal [7]: 448
antibody binding signal [8]: 171
antibody binding signal [9]: 185
antibody binding signal [10]: 110
antibody binding signal [11]: 141

NKTATGGAPSQSGAS
antibody binding signal [1]: 1280
antibody binding signal [2]: 358
antibody binding signal [3]: 2350
antibody binding signal [4]: 501
antibody binding signal [5]: 791
antibody binding signal [6]: 577
antibody binding signal [7]: 746
antibody binding signal [8]: 872
antibody binding signal [9]: 304
antibody binding signal [10]: 402
antibody binding signal [11]: 1090

NKPATGEAPSPSGAS
antibody binding signal [1]: 26200
antibody binding signal [2]: 51000
antibody binding signal [3]: 48400
antibody binding signal [4]: 259
antibody binding signal [5]: 338
antibody binding signal [6]: 40300
antibody binding signal [7]: 889
antibody binding signal [8]: 1350
antibody binding signal [9]: 963
antibody binding signal [10]: 250
antibody binding signal [11]: 1010

KEKKTATGGAPSPSG
antibody binding signal [1]: 434
antibody binding signal [2]: 172
antibody binding signal [3]: 251
antibody binding signal [4]: 1180
antibody binding signal [5]: 316
antibody binding signal [6]: 328
antibody binding signal [7]: 205
antibody binding signal [8]: 146
antibody binding signal [9]: 90.1
antibody binding signal [10]: 122
antibody binding signal [11]: 99.5

TENKTAAGGTPSQSG
antibody binding signal [1]: 23000
antibody binding signal [2]: 547
antibody binding signal [3]: 366
antibody binding signal [4]: 4920
antibody binding signal [5]: 497
antibody binding signal [6]: 1480
antibody binding signal [7]: 439
antibody binding signal [8]: 239
antibody binding signal [9]: 1410
antibody binding signal [10]: 2300
antibody binding signal [11]: 192

GKDKKAATGGTPSQS
antibody binding signal [1]: 422
antibody binding signal [2]: 235
antibody binding signal [3]: 197
antibody binding signal [4]: 625
antibody binding signal [5]: 1190
antibody binding signal [6]: 813
antibody binding signal [7]: 211
antibody binding signal [8]: 92.1
antibody binding signal [9]: 182
antibody binding signal [10]: 138
antibody binding signal [11]: 92.5

TPPSGTEKKAATGGA
antibody binding signal [1]: 30900
antibody binding signal [2]: 1560
antibody binding signal [3]: 24000
antibody binding signal [4]: 1070
antibody binding signal [5]: 4210
antibody binding signal [6]: 1810
antibody binding signal [7]: 989
antibody binding signal [8]: 726
antibody binding signal [9]: 193
antibody binding signal [10]: 104
antibody binding signal [11]: 500

SGKDNKAATGETPSQ
antibody binding signal [1]: 1940
antibody binding signal [2]: 1390
antibody binding signal [3]: 22300
antibody binding signal [4]: 595
antibody binding signal [5]: 495
antibody binding signal [6]: 11500
antibody binding signal [7]: 192
antibody binding signal [8]: 351
antibody binding signal [9]: 131
antibody binding signal [10]: 114
antibody binding signal [11]: 115

SGTDKKPATGETPSP
antibody binding signal [1]: 31200
antibody binding signal [2]: 27200
antibody binding signal [3]: 34600
antibody binding signal [4]: 4190
antibody binding signal [5]: 328
antibody binding signal [6]: 24400
antibody binding signal [7]: 182
antibody binding signal [8]: 467
antibody binding signal [9]: 249
antibody binding signal [10]: 3450
antibody binding signal [11]: 578
